# Measurements taken from US20230046078A1, “METHODS OF USING SUBSTITUTED FLAVONES FOR TREATING BONE DISORDERS” (EMORY UNIVERSITY, priority 2021, published 2023).
# Test system: MC3T3-E1 cells
# Assay type: cell-based, Murine
# Details: OIM, four days
# Method: Total RNA was isolated by TRIzol (Life Technologies, Carlsbad, Calif.). Reverse transcription was performed with SuperScript III reverse transcriptase (Life Technologies). Gene-specific primers and probes were designed and bought from Taqman (Life Technologies). All real-time PCR reactions were performed using the ABI 7500-Fast Real-Time PCR System and the Taqman Universal Master Mix Kit (Life Technologies). The relative quantification of gene expression was calculated using the ΔΔCt method. Predesigned real-time PCR primers from Applied Biosystems (Waltham, Mass.) were used for the analysis of Opg (Tnfrsf11b; Mm0043545_m1), RANK-L (Tnfsf11; Mm00441908_m1), AEP (Lgmn; Mm01325350_m1), GAPDH (Gapdh; Mm99999915_g1).
smiles,measurement,value
"O=c1cc(-c2ccccc2)oc2c(O)c(O)ccc12 [7,8-DHF]",OPG mRNA levels,increases [passage A] and strong stimulatory effect [passage B]

# For part of its entries the source gives two or more results. The other results are left out here. There may be further records. The records of an entry read as repeated measurements (runs, samples, wells or individuals). Marks in square brackets tell the records apart. Letters count within one entry.
